For 13 sequences, binding signal results are on record in PMC5700166.

Common to all, as to assay: protein-binding microarray (PBM)
What all share (conditions): PBM: ~300 nM protein, 6 mM HEPES pH 7.8, 80 mM KCl, 0.5 mM EDTA, 0.5 mM EGTA, 6% glycerol, 35 ng/ul poly-dIdC, 1% milk, 1 h, room temperature; Ap Aiptasia and Nv Nematostella (sea anemones) / Co Capsaspora / Aq Amphimedon (sponge) / Dm Drosophila / Hu human; RHD is the Rel homology domain; high values mean tight binding; most listed sequences are background and not binding sites; double strand, one strand shown

One test deals with T1, GST-Ap-NF-kB RHD (UniProt A0A913YAJ5).
T1 sequence: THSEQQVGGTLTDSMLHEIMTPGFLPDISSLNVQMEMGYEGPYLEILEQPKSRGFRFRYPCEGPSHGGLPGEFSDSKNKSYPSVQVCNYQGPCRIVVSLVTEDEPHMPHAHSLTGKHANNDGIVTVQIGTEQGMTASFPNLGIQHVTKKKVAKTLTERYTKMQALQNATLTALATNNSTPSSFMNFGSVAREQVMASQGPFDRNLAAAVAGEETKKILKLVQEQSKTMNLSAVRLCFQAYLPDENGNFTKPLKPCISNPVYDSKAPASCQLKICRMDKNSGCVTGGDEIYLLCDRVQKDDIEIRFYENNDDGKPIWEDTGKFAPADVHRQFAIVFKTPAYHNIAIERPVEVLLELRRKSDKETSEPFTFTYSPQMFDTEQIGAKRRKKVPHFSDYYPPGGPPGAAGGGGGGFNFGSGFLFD

Test [1] addresses T2, GST-Nv-NF-kB (Cys allele) (UniProt E5G601).
T2 sequence: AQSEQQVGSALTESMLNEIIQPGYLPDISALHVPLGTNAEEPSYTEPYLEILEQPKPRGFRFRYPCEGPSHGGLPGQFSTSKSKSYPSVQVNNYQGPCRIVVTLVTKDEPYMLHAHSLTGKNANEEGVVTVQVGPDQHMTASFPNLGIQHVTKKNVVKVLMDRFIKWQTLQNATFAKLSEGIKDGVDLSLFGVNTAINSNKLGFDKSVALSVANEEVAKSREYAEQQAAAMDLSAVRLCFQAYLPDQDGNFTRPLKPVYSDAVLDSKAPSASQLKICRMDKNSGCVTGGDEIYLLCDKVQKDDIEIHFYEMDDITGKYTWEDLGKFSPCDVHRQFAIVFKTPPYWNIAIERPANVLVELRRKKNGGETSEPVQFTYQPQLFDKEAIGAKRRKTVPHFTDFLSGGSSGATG

A further test deals with T3, GST-Co-NF-kB (UniProt F1ARL5).
T3 sequence: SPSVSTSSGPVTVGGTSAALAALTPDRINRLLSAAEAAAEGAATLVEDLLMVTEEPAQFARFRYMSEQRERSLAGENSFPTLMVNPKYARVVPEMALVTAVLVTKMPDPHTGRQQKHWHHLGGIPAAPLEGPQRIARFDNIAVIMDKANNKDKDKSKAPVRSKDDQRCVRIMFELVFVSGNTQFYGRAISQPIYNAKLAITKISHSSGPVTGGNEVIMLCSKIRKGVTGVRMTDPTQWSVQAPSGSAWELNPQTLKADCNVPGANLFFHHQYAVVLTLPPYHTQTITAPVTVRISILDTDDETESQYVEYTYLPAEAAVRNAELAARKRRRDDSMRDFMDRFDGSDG

Another test addresses T4, GST-Dm-Relish (UniProt Q94527).
T4 sequence: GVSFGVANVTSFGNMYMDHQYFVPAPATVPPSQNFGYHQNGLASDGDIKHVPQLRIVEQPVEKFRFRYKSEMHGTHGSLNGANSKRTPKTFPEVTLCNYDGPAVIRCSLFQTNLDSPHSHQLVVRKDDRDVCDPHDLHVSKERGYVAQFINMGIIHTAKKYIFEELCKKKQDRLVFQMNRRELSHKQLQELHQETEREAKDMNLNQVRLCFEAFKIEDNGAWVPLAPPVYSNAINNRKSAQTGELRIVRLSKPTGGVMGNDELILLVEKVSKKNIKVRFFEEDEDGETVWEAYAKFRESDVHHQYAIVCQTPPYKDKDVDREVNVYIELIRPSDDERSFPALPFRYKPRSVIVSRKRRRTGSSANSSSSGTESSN

A further test has as its target T5, GST-Aq-NF-kB (UniProt A9Y5G7).
T5 sequence: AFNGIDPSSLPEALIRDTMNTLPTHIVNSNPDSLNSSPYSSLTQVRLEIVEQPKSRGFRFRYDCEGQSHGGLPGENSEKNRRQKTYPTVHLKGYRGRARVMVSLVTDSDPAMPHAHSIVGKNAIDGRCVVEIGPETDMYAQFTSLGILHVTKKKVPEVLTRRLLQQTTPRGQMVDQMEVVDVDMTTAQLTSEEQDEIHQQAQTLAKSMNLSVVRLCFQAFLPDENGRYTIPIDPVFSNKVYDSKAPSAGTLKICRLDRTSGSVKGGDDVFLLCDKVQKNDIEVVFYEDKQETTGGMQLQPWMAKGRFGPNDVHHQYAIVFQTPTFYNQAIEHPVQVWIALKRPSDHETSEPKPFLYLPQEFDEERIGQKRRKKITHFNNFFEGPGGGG

Only a part is listed here, and it is no random draw. The list includes weakly bound sequences.

In the case of “CCGATTAACATCAGAGTTAGTTTTGATGTTAATCGGGTCTTGATTCGCTTGACGCTGCTG”, the binding signal is -0.393 z-score in the test with GST-Ap-NF-kB RHD; 0.0717 z-score in test [1]; -0.567 z-score in the test with GST-Co-NF-kB; -0.309 z-score with GST-Dm-Relish; -0.539 z-score with GST-Aq-NF-kB.

For the sequence “CCGATTAACATCAGGGCTGGACATGATGTTAATCGGGTCTTGATTCGCTTGACGCTGCTG”, the binding signal with GST-Ap-NF-kB RHD is -0.121 z-score; in test [1] it was -0.257 z-score; with GST-Co-NF-kB, -0.497 z-score; with GST-Dm-Relish it was -0.795 z-score; with GST-Aq-NF-kB, -0.331 z-score.

For the sequence “CCGATTAACATCAGTGGATGCAATGATGTTAATCGGGTCTTGATTCGCTTGACGCTGCTG”, the binding signal in the test with GST-Ap-NF-kB RHD was -0.258 z-score; in test [1] it was -0.0198 z-score; in the test with GST-Co-NF-kB, -0.22 z-score; with GST-Dm-Relish, 0.0218 z-score; with GST-Aq-NF-kB, -0.169 z-score.

Regarding “CCGATTAACATCATTATATCTCATGATGTTAATCGGGTCTTGATTCGCTTGACGCTGCTG”, the binding signal in the test with GST-Ap-NF-kB RHD was -1.02 z-score; in test [1] it was 0.011 z-score; with GST-Co-NF-kB, 0.152 z-score; with GST-Dm-Relish, -0.145 z-score; with GST-Aq-NF-kB, -0.27 z-score.

With “CCGATTAACATCACTTCTAACATTGATGTTAATCGGGTCTTGATTCGCTTGACGCTGCTG”, the binding signal in the test with GST-Ap-NF-kB RHD was -0.545 z-score; in test [1], -0.0639 z-score; in the test with GST-Co-NF-kB it was -0.218 z-score; with GST-Dm-Relish it was -0.309 z-score; with GST-Aq-NF-kB, -0.439 z-score.

Consider “CCGATTAACATCACAGCGTGAGGTGATGTTAATCGGGTCTTGATTCGCTTGACGCTGCTG”, for which the binding signal was 0.201 z-score in the test with GST-Ap-NF-kB RHD; -0.682 z-score in test [1]; -0.717 z-score with GST-Co-NF-kB; 1.34 z-score with GST-Dm-Relish; 0.154 z-score in the test with GST-Aq-NF-kB.

In the case of “CCGATTAACATCATGTCTATCGGTGATGTTAATCGGGTCTTGATTCGCTTGACGCTGCTG”, the binding signal with GST-Ap-NF-kB RHD was -0.0249 z-score; in test [1], 0.446 z-score; in the test with GST-Co-NF-kB, 0.654 z-score; with GST-Dm-Relish, 0.332 z-score; with GST-Aq-NF-kB, 0.204 z-score.

In the case of “CCGATTAACATCACCCGGAATTCTGATGTTAATCGGGTCTTGATTCGCTTGACGCTGCTG”, the binding signal with GST-Ap-NF-kB RHD came to 0.819 z-score; in test [1], 0.00622 z-score; with GST-Co-NF-kB it was 0.645 z-score; with GST-Dm-Relish it was 0.921 z-score; with GST-Aq-NF-kB, 0.878 z-score.

On to “CCGATTAACATCATAATGATCTCTGATGTTAATCGGGTCTTGATTCGCTTGACGCTGCTG”, for which the binding signal is 0.0854 z-score with GST-Ap-NF-kB RHD; -0.587 z-score in test [1]; -1.11 z-score with GST-Co-NF-kB; -1.4 z-score with GST-Dm-Relish; -0.627 z-score with GST-Aq-NF-kB.

For “CCGATTAACATCAGTCTGGAACTTGATGTTAATCGGGTCTTGATTCGCTTGACGCTGCTG”, the binding signal with GST-Ap-NF-kB RHD is -0.807 z-score; in test [1] it was -0.0716 z-score; with GST-Co-NF-kB, -0.268 z-score; with GST-Dm-Relish, -0.403 z-score; in the test with GST-Aq-NF-kB, -0.584 z-score.

Regarding “CCGATTAACATCATAGTATAAGATGATGTTAATCGGGTCTTGATTCGCTTGACGCTGCTG”, the binding signal was -0.494 z-score in the test with GST-Ap-NF-kB RHD; -0.59 z-score in test [1]; -0.277 z-score with GST-Co-NF-kB; -0.487 z-score in the test with GST-Dm-Relish; -0.203 z-score in the test with GST-Aq-NF-kB.

Take “CCGATTAACATCACGAATCAAACTGATGTTAATCGGGTCTTGATTCGCTTGACGCTGCTG”: the binding signal in the test with GST-Ap-NF-kB RHD was 0.00823 z-score; in test [1], 0.697 z-score; with GST-Co-NF-kB, 0.21 z-score; with GST-Dm-Relish it was -0.0274 z-score; with GST-Aq-NF-kB it was -0.398 z-score.

Regarding “CCGATTAACATCACCCACCGATTTGATGTTAATCGGGTCTTGATTCGCTTGACGCTGCTG”, the binding signal in the test with GST-Ap-NF-kB RHD was 1.07 z-score; in test [1] it was -0.351 z-score; with GST-Co-NF-kB, 0.72 z-score; with GST-Dm-Relish it was 0.918 z-score; in the test with GST-Aq-NF-kB, 0.633 z-score.
